No constants are given. Whether binding was seen depends on the method and setting. In cells and extracts the contact can be indirect. Some results given as binding are weak or reduced against the parent protein; the word gives no strength.
What was measured:
[1] = target: T1, starch synthase IIa (rice, Oryza sativa japonica cv. Nipponbare (endogenous in developing seeds)) (UniProt Q0DDE3); test: condition: only in extract of SS1/ss2a^L/ss3a seeds; co-IP; as a1, soluble proteins of developing seeds of SS1/ss2a^L/ss3a (SSIIIa absent); control with pre-immune serum
T1 sequence: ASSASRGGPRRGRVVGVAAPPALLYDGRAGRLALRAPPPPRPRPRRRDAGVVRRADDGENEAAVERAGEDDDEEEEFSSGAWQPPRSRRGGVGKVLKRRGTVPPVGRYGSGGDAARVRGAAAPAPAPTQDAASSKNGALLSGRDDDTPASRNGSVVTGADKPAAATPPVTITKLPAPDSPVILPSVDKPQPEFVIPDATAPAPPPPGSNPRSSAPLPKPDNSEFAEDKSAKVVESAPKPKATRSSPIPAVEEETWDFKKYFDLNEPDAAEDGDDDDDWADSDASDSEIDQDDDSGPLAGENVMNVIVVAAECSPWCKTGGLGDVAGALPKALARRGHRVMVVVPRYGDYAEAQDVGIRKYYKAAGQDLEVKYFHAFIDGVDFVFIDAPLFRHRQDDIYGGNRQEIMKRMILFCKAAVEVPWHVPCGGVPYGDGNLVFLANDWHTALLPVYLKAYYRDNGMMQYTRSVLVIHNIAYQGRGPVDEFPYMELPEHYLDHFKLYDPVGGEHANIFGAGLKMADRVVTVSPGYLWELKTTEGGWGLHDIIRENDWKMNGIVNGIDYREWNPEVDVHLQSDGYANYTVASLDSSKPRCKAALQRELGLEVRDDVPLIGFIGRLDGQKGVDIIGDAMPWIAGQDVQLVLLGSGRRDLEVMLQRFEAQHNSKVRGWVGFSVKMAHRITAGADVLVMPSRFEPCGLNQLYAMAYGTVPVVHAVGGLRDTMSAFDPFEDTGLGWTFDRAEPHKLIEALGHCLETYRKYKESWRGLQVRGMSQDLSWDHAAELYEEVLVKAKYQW

[2] = target: T1, starch synthase IIa (rice, Oryza sativa japonica cv. Nipponbare (endogenous in developing seeds)); test: condition: only in extract of ss1^L/ss2a^L/SS3a seeds; co-IP; as a1, soluble proteins of developing seeds of ss1^L/ss2a^L/SS3a (SSI reduced); control with pre-immune serum
[3] = target: T1, starch synthase IIa (rice, Oryza sativa japonica cv. Nipponbare (endogenous in developing seeds)); test: condition: only in extract of ss1^L/ss2a^L/ss3a seeds; co-IP; as a1, soluble proteins of developing seeds of ss1^L/ss2a^L/ss3a (SSI reduced, SSIIIa absent); control with pre-immune serum
[4] = target: T1, starch synthase IIa (rice, Oryza sativa japonica cv. Nipponbare (endogenous in developing seeds)); test: co-IP; immuno-precipitation with isozyme specific antibodies from soluble proteins of developing rice seeds, immuno-blotting; wild-type Nipponbare (SS1/ss2a^L/SS3a); the BEI-BEIIb, BEI-PUL and Pho1-BEIIa pairs also in the three mutant lines; control with pre-immune serum
[5] = target: starch synthase IIIa (rice, Oryza sativa japonica cv. Nipponbare (endogenous in developing seeds)); test: condition: only in extract of ss1^L/ss2a^L/SS3a seeds; co-IP; as a1, soluble proteins of developing seeds of ss1^L/ss2a^L/SS3a (SSI reduced); control with pre-immune serum
[6] = target: starch synthase IIIa (rice, Oryza sativa japonica cv. Nipponbare (endogenous in developing seeds)); test: co-IP; immuno-precipitation with isozyme specific antibodies from soluble proteins of developing rice seeds, immuno-blotting; wild-type Nipponbare (SS1/ss2a^L/SS3a); the BEI-BEIIb, BEI-PUL and Pho1-BEIIa pairs also in the three mutant lines; control with pre-immune serum

B1: starch synthase I (enzyme, UniProt Q0DEC8 114-641)
chain: SEQESEIMDVKEQAQAKVTRSVVFVTGEASPYAKSGGLGDVCGSLPIALALRGHRVMVVMPRYMNGALNKNFANAFYTEKHIKIPCFGGEHEVTFFHEYRDSVDWVFVDHPSYHRPGNLYGDNFGAFGDNQFRYTLLCYAACEAPLILELGGYIYGQKCMFVVNDWHASLVPVLLAAKYRPYGVYRDARSVLVIHNLAHQGVEPASTYPDLGLPPEWYGALEWVFPEWARRHALDKGEAVNFLKGAVVTADRIVTVSQGYSWEVTTAEGGQGLNELLSSRKSVLNGIVNGIDINDWNPSTDKFLPYHYSVDDLSGKAKCKAELQKELGLPIRPDVPLIGFIGRLDYQKGIDLIKLAIPDLMRDNIQFVMLGSGDPGFEGWMRSTESGYRDKFRGWVGFSVPVSHRITAGCDILLMPSRFEPCGLNQLYAMQYGTVPVVHGTGGLRDTVENFNPFAEKGEQGTGWAFSPLTIEKMLWALRMAISTYREHKSSWEGLMKRGMSSDFTWDHAASQYEQIFEWAFMDQPYVM
binding [1]: no binding | binding [2]: no binding | binding [3]: no binding | binding [4]: binds

B2: starch synthase IIa (enzyme, UniProt Q0DDE3 17-810)
chain: T1 sequence
binding [5]: no binding | binding [6]: binds

— article PMC5894220
